Measurements published in publication PMC4336329 (PLoS ONE, 2015).
The campaign covered roughly 310,000 compounds. About 14,000 (4.5%) showed an effect of 50% or more. The effect is printed as a negative number. The list shows a part of the results.

Biological target: human ether-à-go-go-related gene (hERG) potassium channel (human, UniProt Q12809)
Test: primary screen, population patch clamp on CHO cells stably expressing hERG
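Note: peak tail current of the secondary pulse compared with the same well before compound.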

Sequence of human ether-à-go-go-related gene (hERG) potassium channel (Q12809 whole entry, looked up): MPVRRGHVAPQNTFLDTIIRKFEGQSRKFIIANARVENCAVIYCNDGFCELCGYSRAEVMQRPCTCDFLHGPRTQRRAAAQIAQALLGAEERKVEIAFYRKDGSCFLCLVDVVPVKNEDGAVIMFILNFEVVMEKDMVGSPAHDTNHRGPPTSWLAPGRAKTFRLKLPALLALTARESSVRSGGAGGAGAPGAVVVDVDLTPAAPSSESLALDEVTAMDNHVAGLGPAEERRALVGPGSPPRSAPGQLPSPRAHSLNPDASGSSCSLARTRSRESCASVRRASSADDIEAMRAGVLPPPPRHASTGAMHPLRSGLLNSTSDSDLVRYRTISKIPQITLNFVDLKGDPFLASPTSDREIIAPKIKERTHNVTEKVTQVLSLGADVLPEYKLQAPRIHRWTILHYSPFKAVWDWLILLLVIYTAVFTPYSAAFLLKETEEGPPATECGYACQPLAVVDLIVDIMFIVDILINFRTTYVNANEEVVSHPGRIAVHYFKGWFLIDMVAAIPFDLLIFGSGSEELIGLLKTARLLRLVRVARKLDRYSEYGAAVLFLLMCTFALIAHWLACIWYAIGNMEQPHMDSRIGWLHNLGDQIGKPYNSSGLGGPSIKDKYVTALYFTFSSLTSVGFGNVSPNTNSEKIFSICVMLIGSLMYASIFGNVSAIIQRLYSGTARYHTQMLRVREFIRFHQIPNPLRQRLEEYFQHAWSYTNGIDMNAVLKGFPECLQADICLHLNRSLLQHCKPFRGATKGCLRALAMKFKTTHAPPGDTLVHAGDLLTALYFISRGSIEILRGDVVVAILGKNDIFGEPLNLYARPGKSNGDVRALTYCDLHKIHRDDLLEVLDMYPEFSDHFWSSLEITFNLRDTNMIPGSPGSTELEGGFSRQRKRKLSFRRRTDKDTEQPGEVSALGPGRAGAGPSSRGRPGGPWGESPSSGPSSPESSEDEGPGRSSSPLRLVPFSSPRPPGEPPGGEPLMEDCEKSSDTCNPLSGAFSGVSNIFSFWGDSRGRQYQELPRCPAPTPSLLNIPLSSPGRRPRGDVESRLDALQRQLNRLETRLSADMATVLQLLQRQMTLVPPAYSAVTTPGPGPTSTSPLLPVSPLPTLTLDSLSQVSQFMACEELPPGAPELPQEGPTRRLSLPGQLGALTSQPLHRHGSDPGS

| Structure (SMILES) | hERG current change (%, negative = inhibition) at 10uM [%] |
| --- | --- |
| COc1ccc(NC(C)=O)cc1NC(=O)CSc1nnc(-c2ccc(F)cc2)n1N | 2.05 |
| N#CC(NC(=O)OCc1ccccc1)c1ccccc1 (stereo not drawn) | -3.2 |
| CC(C)(C)C1CCc2c(sc(NC(=O)c3cccs3)c2C(N)=O)C1 (stereo not drawn) | 15.2 |
| OCC[C@H]1C[C@H](O)[C@@H](O)[C@@]2(CCc3ccccc3O2)O1 | -6.43 |
| COc1cccc(NS(=O)(=O)c2ccc(C)c(C(=O)N3CCCCC3)c2)c1 | -19.8 |
| Cc1ccc2cccc(NS(=O)(=O)c3ccccc3)c2n1 | 7.02 |
| COc1ccc(C2CC(O)(c3ccccc3)Oc3cc(OC)c(OC)c(OC)c32)cc1 (stereo not drawn) | -3.75 |
| O=C(NCc1ccco1)c1cccc(Br)c1 | 5.56 |
| CC1(C)CC(=O)C=C(NCCc2ccc(S(N)(=O)=O)cc2)C1 | -9.57 |
| CN(c1ccc(O)cc1)S(=O)(=O)c1ccc2ccccc2c1 | -12.8 |
| COc1cccc(C(=O)Nc2ccc(Cl)c(C(F)(F)F)c2)c1 | -21.3 |
| Cn1c(CNC(=O)c2ccc3c(c2)OCO3)nnc1SCC(=O)Nc1ccc(F)cc1 | -7.22 |
| O=C(COC(=O)Cc1cccs1)Nc1ccccc1 | -9.89 |
| Cc1cc(C)n(CCC(=O)N/N=C/c2c(O)ccc3ccccc23)n1 | -4.47 |
| O=C(Oc1ccccc1)N1CCN(c2ccccc2F)CC1 | -18.1 |
| CCOc1ccc(C(=O)CSc2nnc3ccccn23)cc1 | -8.67 |
| Cc1c(NC(=O)c2ccc3c(c2)OCO3)cccc1-c1nc2ccccc2s1 | 12.7 |
| Nc1ccc(C(=O)[O-])c(O)c1.[Na+] | 16.6 |
| CN(C(=O)COC(=O)c1ccc2c(c1)NC(=O)CS2)C1CCS(=O)(=O)C1 (stereo not drawn) | 31.3 |
| CC(=O)Nc1ccc(S(=O)(=O)N2CCN(CCc3ccccc3)CC2)cc1 | -24 |
| Cc1ccc(NC(=O)CSc2ccc(-c3ccc(-n4cccn4)cc3)nn2)c(C)c1 | 3.71 |
| Cc1ccccc1OCC(=O)Nc1cccc2nsnc12 | -5.51 |

| Structure (SMILES) | hERG current change (%, negative = inhibition) at 10uM [%] |
| --- | --- |
| COc1ccc(N2CCN(CC(=O)Nc3nnc(-c4ccccc4)s3)CC2)cc1 | -3.81 |
| COc1ccc(OC)c(S(=O)(=O)NC2CCN(Cc3ccccc3)CC2)c1 | -4.92 |
| Cc1ccc(CS(=O)Cc2ccc(C(=O)NC3CCCCCC3)o2)cc1 (stereo not drawn) | 8.98 |
| CCC(C)c1ccc(S(=O)(=O)N2CCN(C(C)C(=O)NC3CCCC3)CC2)cc1 (stereo not drawn) | -79.1 |
| CCCCC(=O)Nc1ccc(NC(=O)c2ccc([N+](=O)[O-])cc2)cc1OC | -10.6 |
| CCCCc1c(C)[nH]c(=S)[nH]c1=O | 16.6 |
| CC(=O)N1CCc2cc(C(=O)CN3CCN(c4cccc(Cl)c4)CC3)ccc21 | -0.529 |
| O=C(CN1CCOCC1)N/N=C/C=C/c1ccccc1 | -26.3 |
| C#CCOCCOCCOCCNc1nc(N2CCN(C(=O)[C@H]([C@@H](C)CC)n3cc([C@@H](N)CC(C)C)nn3)CC2)nc(N2CCN(C(=O)[C@H](Cc3cc4ccccc4[nH]3)n3cc([C@@H](N)Cc4ccc(O)cc4)nn3)CC2)n1.Cl | 7.83 |
| COc1ccc(OCC(O)CN(C)C(=O)/C=C/c2cccc([N+](=O)[O-])c2)cc1 (stereo not drawn) | -80.5 |
| CN(c1ccccc1C(=O)Nc1ccc(S(=O)(=O)N2CCOCC2)cc1)S(=O)(=O)c1ccccc1 | -2.58 |
| CCOc1ccccc1CN1CCC(Oc2cccc(C(=O)NCCOC)c2)CC1 | -30.8 |
| Cc1ccc2c(c1)c1c(c(=O)n(-c3ccccc3C)c(=O)n1CC(=O)NCC1CCCO1)n2C (stereo not drawn) | -38.2 |
| COC(=O)CNS(=O)(=O)c1ccc(Cc2ccc(S(=O)(=O)NCC(=O)OC)cc2)cc1 | -18.4 |
| Cc1nc(NNC(=O)c2ccc([N+](=O)[O-])cc2)cc(-c2ccccc2)n1 | -50.8 |
| COc1ccccc1NC(=O)c1nc[nH]c1C(=O)Nc1ccccc1OC | 20 |
| C=C1N(C)c2cc([N+](=O)[O-])c(N)cc2C1(C)C | -29.3 |
| Cc1noc(NS(=O)(=O)c2ccc(NC(=O)C34CCC(CC3)C4)cc2)c1C | -9.55 |
| Cc1cccc(N(C)c2cc(C)nc3ncnn23)c1 | 6.34 |
| O=C(CCS(=O)(=O)c1ccc(Br)cc1)Nc1ccccn1 | 3.95 |
| CCOc1ccccc1NC(=O)c1cc2ccccc2oc1=O | 20.2 |
| Cc1ccc(C(=O)N2CCC3(CC2)Oc2ccc(F)cc2C(=O)C32CC(c3ccccc3)=NO2)s1 (stereo not drawn) | 22.4 |

| Structure (SMILES) | hERG current change (%, negative = inhibition) at 10uM [%] |
| --- | --- |
| CCC(=O)Nc1ccc(C(=O)Nc2cccc(OC)c2)cc1 | 1.62 |
| CCSc1nnc(NC(=O)CCc2ccc(OC)cc2)s1 | 1.77 |
| O=C(CSc1nc2ccccc2[nH]1)NCCc1ccc(Cl)cc1 | -20.9 |
| O=C(CSc1ccccc1)Nc1ccccc1N1CCOCC1 | -24.2 |
| CC1=Nn2c(nnc2-c2ccccc2Cl)SC1 | 20.1 |
| COc1ccc(S(=O)(=O)Nc2c(C)cccc2C)cc1-n1cnnn1 | 3.66 |
| O=C(CN(C(=O)c1csnn1)c1cccc(C(F)(F)F)c1)NCCc1ccccc1 | 9.81 |
| O=C(COC(=O)CNS(=O)(=O)c1ccccc1)Nc1ncc(Cl)cc1Cl | -5.49 |
| Cc1ccc(CNc2ccc3c(c2)nc(C)n3C)cc1 | -21.9 |
| Cc1cc(C(=O)CSc2ccc(F)cc2)cc(C)c1O | -13.6 |
| COC(=O)c1ccccc1NC(=O)CN(C1CCCCC1)S(C)(=O)=O | -27.1 |
| COc1ccc(C(CNC(=O)C(C)(C)Oc2ccc(Cl)cc2)N2CCCCC2)cc1 (stereo not drawn) | -53.8 |
| CCOC(=O)c1cccc(NC(=O)CSc2nnc(C)n2CC2CCCO2)c1 (stereo not drawn) | -17.1 |
| CCOC(=O)c1cc(-c2ccccc2)sc1NC(=O)C(C)Sc1nnc(C)s1 (stereo not drawn) | 15.5 |
| Cc1cccc(-c2nnn(C/C(N)=N/O)n2)c1 | 3.93 |
| Cc1ccc(C)c(Cn2c(C)nc3c(sc(=S)n3-c3ccccc3)c2=O)c1 | -12.7 |
| O=C(c1ccccc1)n1ccc(-c2cccs2)n1 | 20.7 |
| COc1ccc(/C=N/NC(=O)CCOc2ccccc2C)cc1OC | -4.93 |
| CC(Sc1ccccn1)C(=O)Nc1ccc2c(c1)OCCO2 (stereo not drawn) | -8.95 |
| O=C(CN(C(=O)c1csnn1)c1cccc(Cl)c1)NC1CCCCC1 | 2.46 |
| Cc1ccccc1-c1nnc(SCC(=O)N(C)c2c(N)n(Cc3ccccc3)c(=O)[nH]c2=O)n1C | 11.8 |
| COc1cc(/C=C/C(=O)O)cc(S(=O)(=O)N2CCc3ccccc32)c1OC | 2.32 |

| Structure (SMILES) | hERG current change (%, negative = inhibition) at 10uM [%] |
| --- | --- |
| O=C1NCCN/C1=C\C(=O)c1ccccc1 | -3.43 |
| S=C(Nc1cccc(Cl)c1Cl)Nn1cnnc1 | 36.1 |
| CCC(Oc1ccc(C)c(C)c1)C(=O)O (stereo not drawn) | -0.808 |
| COc1ccc(C(=O)Oc2c(C)occc2=O)cc1OC | 9.93 |
| CCn1c(SCc2cccc(C)c2)nnc1-c1ccccc1 | -32.9 |
| CCCCc1nc2cc(C(=O)N3CCNC(=O)C3)ccc2o1 | 17.5 |
| CCn1c(SCC(=O)N/N=C/c2ccncc2)nc2ccccc21 | -13.3 |
| CCc1nnc(NC(=O)C2CCC(CNc3c(N4CCC(C)CC4)c(=O)c3=O)CC2)s1 (stereo not drawn) | 28.4 |
| O=C(Nc1ccc(F)cc1)c1ccccc1Oc1ccc(C(F)(F)F)cc1[N+](=O)[O-] | -6.47 |
| CCCc1cc(=O)oc2cc(OCC(=O)NCc3cccs3)ccc12 | -9.66 |
| COc1ccc(C(=O)On2c(-c3ccc(Br)cc3)nc3ccccc3c2=O)cc1 | 5.05 |
| Cc1onc(-c2ccccc2)c1C(=O)Nc1ccc(Cl)cn1 | -1.56 |
| Cc1ccc2c(CN(C)Cc3ccc(OC(F)F)cc3)cc(=O)oc2c1C | -8.76 |
| Cn1c(=O)n(C)c2cc(C(=O)O)ccc21 | -7.4 |
| O=C(Nc1cccc(-c2ccc(N3CCOCC3)nn2)c1)c1ccc(F)cc1F | 5.71 |
| COCCN(C(=O)COC(=O)c1nc(Cl)ccc1Cl)c1c(N)n(Cc2ccccc2)c(=O)[nH]c1=O | 20.3 |
| COc1ccc(CN2CCOCCOCCOCCOCC2)cc1 | -36 |
| COc1ccc(N(CC(=O)NCc2ccco2)S(C)(=O)=O)cc1OC | 4.34 |
| c1ccc2oc(-c3ccc(Nc4nc(N5CCCCC5)nc(N5CCOCC5)n4)cc3)nc2c1 | -1.32 |
| Fc1ccc(NC(=S)Nc2cccnc2)c(F)c1F | 20.1 |
| C/C(Cn1cnc([N+](=O)[O-])n1)=N\NC(=O)c1ccc(O)cc1O | 31.5 |
